# Test results reported in article PMC5726920 (Nature chemical biology, 2017).
# Molecular target: the molecule itself
# Experiment: native MS
protein,measurement,value
human alpha enolase (enzyme) not shown,stoichiometry N,2
